Molecular target: the molecule itself
Test: SEC-SAXS

B1: BECN1 FHD-CCD, […] (domain or fragment)
chain: not shown
stoichiometry N: 2

B2: BECN1 coiled-coil domain (CCD), […] (domain or fragment)
chain: not shown
binding result: binds

Source: article PMC4876825 (Biochemistry, 2016)
